# The list shows a part of the results.
# Tests used:
# Test in all cases: glycan array binding signal (z-score within array); higher = stronger binding
# Settings in all cases: glycan notation: IUPAC condensed, linker removed
# [1] = molecular target: GlcNAc(a1-6)Gal(b1-4)GlcNAc
# Method in brief: (§1)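 Negative Z-scores can be read as non-binding. The Z-score is calculated within each array and then averaged across arrays of one protein sequence at different concentrations or buffers and across linkers. Arrays, 3228 in all, were curated from the Consortium for Functional Glycomics database and kept only where the protein sequence was available.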
# [2] = molecular target: GlcNAc(b1-2)Gal(b1-3)GalNAc
# Method in brief: as §1
# [3] = molecular target: GlcNAc(b1-2)Man(a1-3)[GlcNAc(b1-2)Man(a1-6)]Man(b1-4)GlcNAc(b1-4)GlcNAc
# Method in brief: as §1
# [4] = molecular target: GlcNAc(b1-2)Man(a1-3)[GlcNAc(b1-2)Man(a1-6)]Man(b1-4)GlcNAc(b1-4)[Fuc(a1-6)]GlcNAc
# Method in brief: as §1
# [5] = molecular target: GlcNAc(b1-2)Man(a1-3)[GlcNAc(b1-4)][GlcNAc(b1-2)Man(a1-6)]Man(b1-4)GlcNAc(b1-4)GlcNAc
# Method in brief: as §1
# [6] = molecular target: GlcNAc(b1-2)Man(a1-3)[GlcNAc(b1-4)][GlcNAc(b1-2)Man(a1-6)]Man(b1-4)GlcNAc(b1-4)[Fuc(a1-6)]GlcNAc
# Method in brief: as §1
# [7] = molecular target: GlcNAc(b1-2)[GlcNAc(b1-4)]Man(a1-3)[GlcNAc(b1-2)Man(a1-6)]Man(b1-4)GlcNAc(b1-4)GlcNAc
# Method in brief: as §1
# [8] = molecular target: GlcNAc(b1-2)[GlcNAc(b1-4)]Man(a1-3)[GlcNAc(b1-4)][GlcNAc(b1-2)Man(a1-6)]Man(b1-4)GlcNAc(b1-4)GlcNAc
# Method in brief: as §1
# [9] = molecular target: GlcNAc(b1-2)[GlcNAc(b1-4)]Man(a1-3)[GlcNAc(b1-4)][GlcNAc(b1-2)[GlcNAc(b1-6)]Man(a1-6)]Man(b1-4)GlcNAc(b1-4)GlcNAc
# Method in brief: as §1
# [10] = molecular target: GlcNAc(b1-2)[GlcNAc(b1-4)]Man(a1-3)[GlcNAc(b1-4)][GlcNAc(b1-2)[GlcNAc(b1-6)]Man(a1-6)]Man(b1-4)GlcNAc(b1-4)[Fuc(a1-6)]GlcNAc
# Method in brief: as §1
# [11] = molecular target: GlcNAc(b1-2)[GlcNAc(b1-6)]Man(a1-6)[GlcNAc(b1-2)Man(a1-3)]Man(b1-4)GlcNAc(b1-4)GlcNAc
# Method in brief: as §1
# [12] = molecular target: GlcNAc(b1-2)[GlcNAc(b1-6)]Man(a1-6)[GlcNAc(b1-2)Man(a1-3)]Man(b1-4)GlcNAc(b1-4)[Fuc(a1-6)]GlcNAc
# Method in brief: as §1
# [13] = molecular target: GlcNAc(b1-2)[GlcNAc(b1-6)]Man(a1-6)[GlcNAc(b1-4)][GlcNAc(b1-2)Man(a1-3)]Man(b1-4)GlcNAc(b1-4)GlcNAc
# Method in brief: as §1
# [14] = molecular target: GlcNAc(b1-3)Fuc
# Method in brief: as §1
# [15] = molecular target: GlcNAc(b1-3)Gal
# Method in brief: as §1
# [16] = molecular target: GlcNAc(b1-3)Gal(b1-3)GalNAc
# Method in brief: as §1
# [17] = molecular target: GlcNAc(b1-3)Gal(b1-4)Glc
# Method in brief: as §1
# [18] = molecular target: GlcNAc(b1-3)Gal(b1-4)GlcNAc
# Method in brief: as §1
# [19] = molecular target: GlcNAc(b1-3)Gal(b1-4)GlcNAc(b1-2)Man(a1-3)[GlcNAc(b1-3)Gal(b1-4)GlcNAc(b1-2)Man(a1-6)]Man(b1-4)GlcNAc(b1-4)GlcNAc
# Method in brief: as §1
# [20] = molecular target: GlcNAc(b1-3)Gal(b1-4)GlcNAc(b1-2)Man(a1-3)[GlcNAc(b1-3)Gal(b1-4)GlcNAc(b1-2)Man(a1-6)]Man(b1-4)GlcNAc(b1-4)[Fuc(a1-6)]GlcNAc
# Method in brief: as §1
# [21] = molecular target: GlcNAc(b1-3)Gal(b1-4)GlcNAc(b1-2)[GlcNAc(b1-3)Gal(b1-4)GlcNAc(b1-6)]Man(a1-6)[GlcNAc(b1-3)Gal(b1-4)GlcNAc(b1-2)Man(a1-3)]Man(b1-4)GlcNAc(b1-4)GlcNAc
# Method in brief: as §1
# [22] = molecular target: GlcNAc(b1-3)Gal(b1-4)GlcNAc(b1-3)Gal(b1-4)GlcNAc
# Method in brief: as §1
# [23] = molecular target: GlcNAc(b1-3)Gal(b1-4)GlcNAc(b1-3)Gal(b1-4)GlcNAc(b1-2)Man(a1-3)[GlcNAc(b1-3)Gal(b1-4)GlcNAc(b1-3)Gal(b1-4)GlcNAc(b1-2)Man(a1-6)]Man(b1-4)GlcNAc(b1-4)GlcNAc
# Method in brief: as §1
# [24] = molecular target: GlcNAc(b1-3)Gal(b1-4)GlcNAc(b1-3)Gal(b1-4)GlcNAc(b1-2)Man(a1-3)[GlcNAc(b1-3)Gal(b1-4)GlcNAc(b1-3)Gal(b1-4)GlcNAc(b1-2)Man(a1-6)]Man(b1-4)GlcNAc(b1-4)[Fuc(a1-6)]GlcNAc
# Method in brief: as §1
# [25] = molecular target: GlcNAc(b1-3)Gal(b1-4)GlcNAc(b1-3)Gal(b1-4)GlcNAc(b1-2)[GlcNAc(b1-3)Gal(b1-4)GlcNAc(b1-3)Gal(b1-4)GlcNAc(b1-6)]Man(a1-6)[GlcNAc(b1-3)Gal(b1-4)GlcNAc(b1-3)Gal(b1-4)GlcNAc(b1-2)Man(a1-3)]Man(b1-4)GlcNAc(b1-4)[Fuc(a1-6)]GlcNAc
# Method in brief: as §1
# [26] = molecular target: GlcNAc(b1-3)Gal(b1-4)GlcNAc(b1-3)Gal(b1-4)GlcNAc(b1-3)Gal(b1-4)GlcNAc(b1-2)Man(a1-3)[GlcNAc(b1-3)Gal(b1-4)GlcNAc(b1-3)Gal(b1-4)GlcNAc(b1-3)Gal(b1-4)GlcNAc(b1-2)Man(a1-6)]Man(b1-4)GlcNAc(b1-4)GlcNAc
# Method in brief: as §1
# [27] = molecular target: GlcNAc(b1-3)Gal(b1-4)GlcNAc(b1-3)Gal(b1-4)GlcNAc(b1-3)Gal(b1-4)GlcNAc(b1-2)Man(a1-3)[GlcNAc(b1-3)Gal(b1-4)GlcNAc(b1-3)Gal(b1-4)GlcNAc(b1-3)Gal(b1-4)GlcNAc(b1-2)Man(a1-6)]Man(b1-4)GlcNAc(b1-4)[Fuc(a1-6)]GlcNAc
# Method in brief: as §1
# [28] = molecular target: GlcNAc(b1-3)Gal(b1-4)GlcNAc(b1-3)Gal(b1-4)GlcNAc(b1-3)Gal(b1-4)GlcNAc(b1-2)[GlcNAc(b1-3)Gal(b1-4)GlcNAc(b1-3)Gal(b1-4)GlcNAc(b1-3)Gal(b1-4)GlcNAc(b1-6)]Man(a1-6)[GlcNAc(b1-3)Gal(b1-4)GlcNAc(b1-3)Gal(b1-4)GlcNAc(b1-3)Gal(b1-4)GlcNAc(b1-2)Man(a1-3)]Man(b1-4)GlcNAc(b1-4)[Fuc(a1-6)]GlcNAc
# Method in brief: as §1
# [29] = molecular target: GlcNAc(b1-3)Gal(b1-4)GlcNAc(b1-3)Gal(b1-4)GlcNAc(b1-3)Gal(b1-4)GlcNAc(b1-3)Gal(b1-4)GlcNAc(b1-2)Man(a1-3)[GlcNAc(b1-3)Gal(b1-4)GlcNAc(b1-3)Gal(b1-4)GlcNAc(b1-3)Gal(b1-4)GlcNAc(b1-3)Gal(b1-4)GlcNAc(b1-2)Man(a1-6)]Man(b1-4)GlcNAc(b1-4)GlcNAc
# Method in brief: as §1
# [30] = molecular target: GlcNAc(b1-3)Gal(b1-4)GlcNAc(b1-3)Gal(b1-4)GlcNAc(b1-3)Gal(b1-4)GlcNAc(b1-3)Gal(b1-4)GlcNAc(b1-2)Man(a1-3)[GlcNAc(b1-3)Gal(b1-4)GlcNAc(b1-3)Gal(b1-4)GlcNAc(b1-3)Gal(b1-4)GlcNAc(b1-3)Gal(b1-4)GlcNAc(b1-2)Man(a1-6)]Man(b1-4)GlcNAc(b1-4)[Fuc(a1-6)]GlcNAc
# Method in brief: as §1
# [31] = molecular target: GlcNAc(b1-3)Gal(b1-4)GlcNAc(b1-3)Gal(b1-4)GlcNAc(b1-3)Gal(b1-4)GlcNAc(b1-3)Gal(b1-4)GlcNAc(b1-2)[GlcNAc(b1-3)Gal(b1-4)GlcNAc(b1-3)Gal(b1-4)GlcNAc(b1-3)Gal(b1-4)GlcNAc(b1-3)Gal(b1-4)GlcNAc(b1-6)]Man(a1-6)[GlcNAc(b1-3)Gal(b1-4)GlcNAc(b1-3)Gal(b1-4)GlcNAc(b1-3)Gal(b1-4)GlcNAc(b1-3)Gal(b1-4)GlcNAc(b1-2)Man(a1-3)]Man(b1-4)GlcNAc(b1-4)[Fuc(a1-6)]GlcNAc
# Method in brief: as §1
# [32] = molecular target: GlcNAc(b1-3)Gal(b1-4)GlcNAc(b1-3)Gal(b1-4)GlcNAc(b1-3)GalNAc
# Method in brief: as §1
# [33] = molecular target: GlcNAc(b1-3)Gal(b1-4)GlcNAc(b1-3)GalNAc
# Method in brief: as §1
# [34] = molecular target: GlcNAc(b1-3)Gal(b1-4)GlcNAc(b1-3)[GlcNAc(b1-3)Gal(b1-4)GlcNAc(b1-3)]GalNAc
# Method in brief: as §1
# [35] = molecular target: GlcNAc(b1-3)Gal(b1-4)GlcNAc(b1-6)[Gal(b1-3)]GalNAc
# Method in brief: as §1
# [36] = molecular target: GlcNAc(b1-3)Gal(b1-4)GlcNAc(b1-6)[GlcNAc(b1-3)Gal(b1-3)]GalNAc
# Method in brief: as §1
# [37] = molecular target: GlcNAc(b1-3)Gal(b1-4)GlcNAc(b1-6)[GlcNAc(b1-3)]Gal(b1-4)GlcNAc
# Method in brief: as §1
binder,measurement,setting,value
DC-ASGPR Long (Homo sapiens) (protein) MTRTYENFQYLENKVKVQGFKNGPLPLQSLLQRLRSGPCHLLLSLGLGLLLLVIICVVGFQNSKFQRDLVTLRTDFSNFTSNTVAEIQALTSQGSSLEETIASLKAEVEGFKQERQAGVSELQEHTTQKAHLGHCPHCPSVCVPVHSEMLLRVQQLVQDLKKLTCQVATLNNNASTEGTCCPVNWVEHQDSCYWFSHSGMSWAEAEKYCQLKNAHLVVINSREEQNFVQKYLGSAYTWMGLSDPEGAWKWVDGTDYATGFQNWKPGQPDDWQGHGLGGGEDCAHFHPDGGWNDDVCQRPYHWVCEAGLGQTSQESH,glycan array binding signal (z-score),[1],-0.441
same,glycan array binding signal (z-score),[2],-0.299
same,glycan array binding signal (z-score),[3],0.282
same,glycan array binding signal (z-score),[4],-0.319
same,glycan array binding signal (z-score),[5],-0.323
same,glycan array binding signal (z-score),[6],-0.117
same,glycan array binding signal (z-score),[7],-0.304
same,glycan array binding signal (z-score),[8],-0.122
same,glycan array binding signal (z-score),[9],-0.298
same,glycan array binding signal (z-score),[10],0.032
same,glycan array binding signal (z-score),[11],5.41
same,glycan array binding signal (z-score),[12],0.235
same,glycan array binding signal (z-score),[13],-0.509
same,glycan array binding signal (z-score),[14],-0.422
same,glycan array binding signal (z-score),[15],-0.203
same,glycan array binding signal (z-score),[16],-0.434
same,glycan array binding signal (z-score),[17],-0.353
same,glycan array binding signal (z-score),[18],-0.433
same,glycan array binding signal (z-score),[19],-0.382
same,glycan array binding signal (z-score),[20],-0.305
same,glycan array binding signal (z-score),[21],-0.057
same,glycan array binding signal (z-score),[22],-0.502
same,glycan array binding signal (z-score),[23],-0.06
same,glycan array binding signal (z-score),[24],-0.454
same,glycan array binding signal (z-score),[25],-0.092
same,glycan array binding signal (z-score),[26],-0.279
same,glycan array binding signal (z-score),[27],0.194
same,glycan array binding signal (z-score),[28],0.093
same,glycan array binding signal (z-score),[29],0.068
same,glycan array binding signal (z-score),[30],1.61
same,glycan array binding signal (z-score),[31],0.067
same,glycan array binding signal (z-score),[32],-0.236
same,glycan array binding signal (z-score),[33],-0.16
same,glycan array binding signal (z-score),[34],-0.316
same,glycan array binding signal (z-score),[35],0.213
same,glycan array binding signal (z-score),[36],-0.22
same,glycan array binding signal (z-score),[37],-0.245

# Source: the supplement of paper PMC8728848
